The whole screen tested about 48,000 compounds, of which about 120 (0.25%) were called active. Another 4% or so got no clear call; they are omitted. Calls follow the shape of the dose curve; as a rule, active = well fitted activation curve with a large enough effect; inconclusive = small, poorly fitted or top-dose-only effect, or another doubt; inactive = no such curve, though single readings can be large or run the other way. The list shows a part of the results.
Assay: Primary qHTS for Identification of Small Molecule Activators of Huntingtin-Antisense Promoter Activity; also: nearly all actives have a fitted effect of over 55% in size
Conditions: HEK293 HTT-AS promoter firefly luciferase reporter, 24 h; series mostly up to 57.5 µM; activity change, positive = activation: at the top concentration
Procedure, shortened: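 Luminescence was read after Dual-Glo reagent and a 10 min room-temperature incubation. Values were normalized to vehicle (0% activity) and zero RLU (-100% activity). Reporter HEK293 cells had been exposed to compounds (up to 57.5 uM final) for 24 h.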

Activity change, positive = activation, inactive:
CCC(=O)N1c2ccccc2CC1C(=O)N1CCN(c2cccc(Cl)c2)CC1 (stereo not drawn) -14%
CCOc1ccc(NC(=O)C2CC(=O)NC(=Nc3ccc(Cl)c(Cl)c3)S2)cc1 (stereo not drawn) -21.2%
Cc1c(C(=O)NCc2ccccc2)sc2nc3n(c(=O)c12)CCCCC3 25.6%
COc1cccc(CNC(=O)c2sc3nc(C)cc(C)c3c2-n2cccc2)c1OC 2.53%
CCOC(=O)c1ccc(NC(=O)C2CCCN(c3ncnc4onc(-c5ccc(F)cc5)c34)C2)cc1 (stereo not drawn) -21.9%
Cc1ccc(Cl)cc1N1CCN(C(=O)c2ccc(NC(=O)c3nsc4ccccc34)cc2)CC1 -28.5%
CCOC(=O)COc1ccc(CC)cc1C(=O)c1ccn2nc(-c3ccccc3)cc2n1 -8.89%
COC(=O)C(Cc1c[nH]c2ccccc12)NC(=O)COc1cccc(C)c1 (stereo not drawn) -8.8%
COC(=O)c1sccc1S(=O)(=O)N1CCN(c2cc(Cl)ccc2C)CC1 -25.4%
Cc1nn(S(=O)(=O)c2ccc(C(C)(C)C)cc2)c(C)c1S(=O)(=O)N1CCCCCC1 -7.21%
Cc1ccc(-c2n[nH]c3c2C(c2ccc(C(C)(C)C)cc2)NC3=O)cc1 (stereo not drawn) -20.5%
COCCNC(=O)CCn1c(=O)c2cc(OC)c(OC)cc2n(CC(=O)Nc2ccc(Cl)cc2F)c1=O -12.2%
Cc1ccc(NC(=O)c2oc3ccc(S(=O)(=O)N4CCC5(CC4)OCCO5)cc3c2C)cc1C -17.6%
COc1ccccc1-c1nc(SCC(=O)NCc2ccc(C)cc2)c2c(=O)n(C)c(=O)n(C)c2n1 -5.7%
Cc1cccc(CN2C(=O)N(c3ccc(C(C)C)cc3)S(=O)(=O)c3ccccc32)c1 -29.2%
Cc1ccc(-c2ccc(=O)n(CC(=O)Nc3ccc(C)cc3Cl)n2)cc1 -15.7%
COc1cccc(/C=C/c2nc(C#N)c(NCCc3ccccc3)o2)c1 2.34%
Clc1cccc(N2CCN(c3nc4ccccc4n4nnnc34)CC2)c1 14.1%
COc1ccc(C(=O)Nc2ccc3oc(-c4cccnc4)nc3c2)cc1 6.62%
O=C1[C@@H]2[C@H]3CC[C@H](C3)[C@@H]2C(=O)N1CCCCN1CCN(c2ncccn2)CC1 -5.96%
COc1ccc(C2C=C(c3ccccc3)Nc3nc(NC(=O)c4cccc([N+](=O)[O-])c4)nn32)cc1 (stereo not drawn) -9.74%
O=C(NCc1ccccc1)C1CCCN(S(=O)(=O)c2cccc3nsnc23)C1 (stereo not drawn) -15.5%
CC(C)(C)OC(=O)N1CCC(c2c(C(=O)Nc3ccc4c(c3)OCCO4)cnn2-c2ccc(Cl)cc2)CC1 -47.7%
O=C1CN(C(=O)COc2ccc(Cl)cc2)C(c2ccccc2)c2cc(Br)ccc2N1 (stereo not drawn) -26.9%
CC[C@H]1OC(=O)[C@H](C)C(=O)[C@H](C)[C@@H](O[C@H]2O[C@H](C)C[C@H](N(C)C)[C@@H]2O)[C@](C)(OC)C[C@@H](C)C(=O)[C@H](C)[C@H]2N(CCCCn3cnc(-c4cccnc4)c3)C(=O)O[C@]12C -27.4%
CCOc1ccc(NC(=O)CN2C(=O)CC(C)Sc3ccccc32)cc1 (stereo not drawn) -16.2%
Cc1ccc2c(c1)C(Cc1ccccc1F)C(=O)N2 (stereo not drawn) -15.9%
COc1ccc(CCNC(=O)C(CC(C)C)N2Cc3ccccc3C2=O)c(OC)c1OC (stereo not drawn) -4.38%
CCn1cc(CCC(=O)NCc2ccc(C)cc2)c2ccccc21 -4.96%
COc1ccc(CCn2c3c(c(=O)[nH]c2=O)C(NC(=O)c2ccccc2F)(C(F)(F)F)C(=O)N3)cc1OC (stereo not drawn) -9.5%
CC(C)Oc1ccccc1C1C=C(C(=O)O)Nc2ncnn21 (stereo not drawn) -15.4%
COc1cc2c(=O)n(Cc3ccccc3Cl)c(=O)n(CC(=O)Nc3ccc(C)c(C)c3)c2cc1OC -2.38%
Cc1cccc(C(=O)Nc2cc(-c3nc4cccnc4s3)ccc2C)c1 12%
COc1ccc(C)cc1NC(=O)C1CCN(S(=O)(=O)c2ccc3[nH]c(=O)oc3c2)CC1 -19.4%
CCC1CN(C(=O)N2CCC(C(=O)NCc3ccc(N(C)C)cc3)CC2)c2ccccc2O1 (stereo not drawn) -26.4%
CCCCC(=O)NCc1nc2cccnc2n1Cc1ccc(OC)cc1 -4.5%
COc1cccc(Nc2ccc3cc(S(=O)(=O)N4CCC(C)CC4)ccc3n2)c1 -36.7%
CCCOc1cccc(C(=O)Nc2cccc(-c3nc4ncccc4o3)c2C)c1 -9.37%
Cc1cn2c(=O)cc(COC(=O)c3cccc(NC(=O)c4ccc(C(C)(C)C)cc4)c3)nc2s1 -1.92%
CCn1cc2nc(SCC(=O)Nc3ccc(OC)c(OC)c3)n(Cc3ccc(Cl)cc3)c(=O)c2n1 -25.2%
CC(=O)c1cccc(NC(=O)C2CCN(C(=O)c3cnn(-c4ccccc4)c3-n3cccc3)CC2)c1 -31.7%
Cc1c(C(=O)NCc2ccccc2Cl)sc2nc3n(c(=O)c12)CCCCC3 9.73%
COc1ccc(-c2cc(-c3ccc(F)cc3)nc3c2COc2ccc(F)cc2-3)cc1 -8.29%
COc1ccc(-c2oc3ncn4nc(-c5ccccc5O)nc4c3c2-c2ccc(OC)cc2)cc1 -9.51% [at 11.5 µM, percent change from vehicle, -100% = no light]
CCOc1ccc(-n2c(/C=C/c3cccc(F)c3)nc3cc(OC)c(OC)cc3c2=O)cc1 -37.1%
Cc1ccccc1-c1nc2scc(CCNS(=O)(=O)c3ccccc3)n2n1 -16.2%
Cc1nn2c(=O)cc(COC(=O)c3cccc(NC(=O)CCc4ccccc4)c3)nc2s1 -2.38%
COc1ccc2c(c1)CCc1c(C(=O)Nc3c(C)nn(Cc4c(Cl)cccc4Cl)c3C)noc1-2 -24.6%
O=C(Nc1cccc(Nc2ncc(Br)c(NCCc3cnc[nH]3)n2)c1)N1CCCC1 -25.7%
COc1ccccc1N1CCN(CCCNc2cc(=O)n(C)c(=O)n2C)CC1 0.335%
O=C(c1cccs1)c1cn(CCOc2ccc(F)cc2)c2ccccc12 -29.4%
CCOC(=O)c1c(C)[nH]c(C)c1S(=O)(=O)NCC(=O)Nc1ccc(CC)cc1 2.05%
CCc1ccccc1NC(=O)c1cc2sc(Cl)cc2n1CC -20.1%
CCOC(=O)c1noc2ncn(CC(=O)Nc3cc(Cl)ccc3OC)c(=O)c12 -6.38%
O=C(Cn1cnc2onc(-c3ccc(F)cc3)c2c1=O)N1CCN(c2ccccc2F)CC1 -15.4%
COc1cc2ccccc2cc1C(=O)Nc1cccc(-c2nc3ccccc3o2)c1 4.7% [at 11.5 µM, percent change from vehicle, -100% = no light]
COc1ccc(N2CCN(C(=O)c3cn(C)c4ccc(S(=O)(=O)N(C)C5CCCCC5)cc4c3=O)CC2)cc1 -11.4% [at 11.5 µM, percent change from vehicle, -100% = no light]
COc1ccc(CNC(=O)C2CCN(S(=O)(=O)c3c(C)noc3/C=C/c3cccs3)CC2)cc1 -4.48%
CC(C(=O)NCc1cccc(Br)c1)n1ncn2cccc2c1=O (stereo not drawn) -15.7%
Cn1cc(-c2cc3n(n2)CCC(=O)N3CCCC(=O)Nc2ccccc2Cl)c2ccccc21 -10.4%
COc1cc(-c2nc3ccc(Cl)cn3c2Nc2ccc3c(c2)OCO3)ccc1O -19.1%
Cc1ccccc1S(=O)(=O)Cc1ccc(C(=O)NCc2ccccc2Cl)o1 -20.8%
Nc1nn(-c2ccccc2)nc1C(=O)OCc1ccccc1Br 5.13%
CC1=C(C(=O)Nc2ccc(C)cc2Cl)C2(CCCCC2)OC1=O -46.8%
C=CCNc1c(O)cc2c(O)c1C[C@@H](C)C[C@H](OC)[C@@H](O)[C@@H](C)C=C(C)[C@H](OC(N)=O)[C@@H](OC)C=CC=C(C)C(=O)N2 -45.1%
CC(NC(=O)c1ccc(CSc2nc3ccncc3n2Cc2ccc(F)cc2)cc1)c1ccccc1 (stereo not drawn) -17.8%
O=S(=O)(c1ccccc1)c1nc(-c2cccs2)oc1N1CCCCC1 -23.3%
Cc1cccc(OCCCSc2nc(-c3ccc(C(C)(C)C)cc3)nc3cc(=O)[nH]n23)c1C -10.7%
C1Cc2[nH]nc(-c3nn[nH]n3)c2C1 -15.1%
CCCCCn1c(=O)[nH]c2cc(C(=O)NCc3ccc(F)cc3)ccc2c1=O -8.67%
Cc1cccc(-n2c(=O)c3c(c4cc(C)ccc4n3C)n(CC(=O)Nc3ccccc3Cl)c2=O)c1 -21.3%
COCCNC(=O)c1ccc2c(c1)N(Cc1ccc(C(F)(F)F)cc1)C(=O)c1ccccc1S2 -43.1%
COc1ccc(-c2cn(-c3ccc(C)cc3)c(S(=O)(=O)CC(=O)Nc3ccccc3)n2)cc1 10.8%
CCOc1ccccc1CNC(=O)CCCN1C(=O)COc2ccc(C)cc21 -13.8%
Cc1cc(Br)ccc1NC(=O)c1coc(=O)c2ccccc12 -30%
CC(C)c1ccccc1NC(=O)CSc1nnc(COc2ccccc2)o1 17.1% [at 11.5 µM, percent change from vehicle, -100% = no light]
Cc1ccc(CNC(=O)CN(C)S(=O)(=O)c2ccc(Br)s2)cc1 -2.05%
Cc1oc2ncn(CC(C)C)c(=O)c2c1C(=O)Nc1cccc(C(F)(F)F)c1 7.2%
O=C(Nc1ccc(Cl)c(Cl)c1)c1cc(S(=O)(=O)N2CCN(c3cccc(Cl)c3)CC2)ccc1F -17.4%
Cc1nn(CCC(=O)NCc2cccc(Br)c2)c(=O)c2nn(-c3ccccc3)c(C)c12 -0.568%
O=C(c1ccc(CS(=O)c2ccccc2Cl)o1)N1CCN(c2cccc(C(F)(F)F)c2)CC1 (stereo not drawn) -60.6%
CC(C)OCCCn1c(SCC(N)=O)nc2c(sc3ccccc32)c1=O -11.1%
O=C(NCCCCc1ccccc1)c1nn(-c2ccccc2F)nc1CO -20.5%
CCn1c(=O)c2sccc2n2c(CCC(=O)N3CCN(c4ccccc4OC)CC3)nnc12 -16.5%
COc1ccc(-c2nnc(SCC(=O)Nc3ccccc3C)o2)cc1OC -4.55%
CCCOc1ccc(C(=O)NCC(c2ccc(OC)cc2)N2CCCCC2)cc1 (stereo not drawn) 15.2%
CC(C)NC(=O)Cn1ccc2cc(S(=O)(=O)N3CCCCCC3)ccc21 -26.2%
CC(C)CNC(=O)c1c(-c2ccccc2)c(-c2ccccc2)nn(C)c1=O -20%
